In all, about 2,900 compounds were measured (“IRF Lucia reporter activity, fold change vs agonist alone”: median about 0.9, highest 2% from about 2.8 on). Some of the results follow.
Assays:
RAW-Dual [1] = assay: IRF Lucia reporter activity, fold change vs agonist alone; cytotoxicity flag (confluency mask): not cytotoxic; higher = enhanced IRF activity
Summary of the method: (§1)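 Library stock was pin-tooled at 50 nL into 384-well plates of RAW-Dual macrophages (50,000 cells/well, DMEM), followed 1 h later by a PRR agonist, and the cells were kept at 37 °C, 5% CO2. Supernatant collected after 20 hours was read for IRF by QuantiLuc luminescence and for NF-κB by QuantiBlue absorbance at 620 nm. Reporter activity is fold change over agonist-alone wells, and a well counted as cytotoxic when its IncuCyte confluency was below 70% of agonist controls in both mask sets.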

RAW-Dual [2] = assay: IRF Lucia reporter activity, fold change vs agonist alone; higher = enhanced IRF activity; conditions: agonist: MPLA (TLR4) […]
Summary of the method: as §1

RAW-Dual [3] = assay: IRF Lucia reporter activity, fold change vs agonist alone; cytotoxicity flag (confluency mask): cytotoxic (confluency <70% of control); higher = enhanced IRF activity
Summary of the method: as §1

[4] = agonist: 3'3'-cGAMP (STING) 10 ug/mL
[5] = library stock concentration (final ~1000-fold dilution): 10 mM, cytotoxicity flag (confluency mask): not cytotoxic
[6] = library stock concentration (final ~1000-fold dilution): 10 mM, cytotoxicity flag (confluency mask): cytotoxic (confluency <70% of control)

## CCCc1cc(=O)[nH]c(=S)[nH]1 (library stock concentration (final ~1000-fold dilution): 10 mM)
RAW-Dual [1]; [4]
  IRF Lucia reporter activity: 0.718
RAW-Dual [1]; agonist: LPS (TLR4) 0.1 ug/mL
  IRF Lucia reporter activity: 0.515

## CCCc1cc(=O)[nH]c(=S)[nH]1
RAW-Dual [2]; [5]
  IRF Lucia reporter activity: 0.617

## N#Cc1ccc(C2CCc3cncn32)c(F)c1 (centres undefined)
RAW-Dual [2]; [5]
  IRF Lucia reporter activity: 1.06

## N#Cc1ccc(C2CCc3cncn32)c(F)c1 (centres undefined) (library stock concentration (final ~1000-fold dilution): 10 mM)
RAW-Dual [1]; [4]
  IRF Lucia reporter activity: 1.17
RAW-Dual [1]; agonist: LPS (TLR4) 0.1 ug/mL
  IRF Lucia reporter activity: 1.06

## C=CC(=O)Nc1cccc(C)c1Nc1ncc2cc(-c3c(Cl)c(OC)cc(OC)c3Cl)ccc2n1 (library stock concentration (final ~1000-fold dilution): 2 mM)
RAW-Dual [1]; [4]
  IRF Lucia reporter activity: 0.323
RAW-Dual [1]; agonist: LPS (TLR4) 0.1 ug/mL
  IRF Lucia reporter activity: 1.1

## CN1CCN(CC(=O)N2c3ccccc3C(=O)Nc3cccnc32)CC1.Cl.Cl
RAW-Dual [2]; library stock concentration (final ~1000-fold dilution): 10 mM water, cytotoxicity flag (confluency mask): not cytotoxic
  IRF Lucia reporter activity: 1.27

## CN1CCN(CC(=O)N2c3ccccc3C(=O)Nc3cccnc32)CC1.Cl.Cl (library stock concentration (final ~1000-fold dilution): 10 mM water)
RAW-Dual [1]; [4]
  IRF Lucia reporter activity: 1.36
RAW-Dual [1]; agonist: LPS (TLR4) 0.1 ug/mL
  IRF Lucia reporter activity: 0.913

## CN1CCN(Cc2ccc(NC(=O)Cc3ccc(Oc4cc(NC(=O)C5CC5)ncn4)cc3)cc2C(F)(F)F)CC1
RAW-Dual [2]; [6]
  IRF Lucia reporter activity: 0.601

## CN1CCN(Cc2ccc(NC(=O)Cc3ccc(Oc4cc(NC(=O)C5CC5)ncn4)cc3)cc2C(F)(F)F)CC1 (library stock concentration (final ~1000-fold dilution): 10 mM)
RAW-Dual [3]; [4]
  IRF Lucia reporter activity: 0.00771
RAW-Dual [3]; agonist: LPS (TLR4) 0.1 ug/mL
  IRF Lucia reporter activity: 0.00669

## CN(C)CCC(c1ccc(Br)cc1)c1ccccn1.O=C(O)/C=C\C(=O)O (centres undefined) (library stock concentration (final ~1000-fold dilution): 10 mM)
RAW-Dual [1]; [4]
  IRF Lucia reporter activity: 0.857
RAW-Dual [1]; agonist: LPS (TLR4) 0.1 ug/mL
  IRF Lucia reporter activity: 0.812

## CN(C)CCC(c1ccc(Br)cc1)c1ccccn1.O=C(O)/C=C\C(=O)O (centres undefined)
RAW-Dual [2]; [5]
  IRF Lucia reporter activity: 0.907

## COc1cc(-c2cn(C)c(=O)c3cnccc23)cc(OC)c1CN(C)C (library stock concentration (final ~1000-fold dilution): 10 mM)
RAW-Dual [1]; [4]
  IRF Lucia reporter activity: 0.838
RAW-Dual [1]; agonist: LPS (TLR4) 0.1 ug/mL
  IRF Lucia reporter activity: 0.835

## Oc1ncnc2[nH]ncc12
RAW-Dual [2]; [5]
  IRF Lucia reporter activity: 0.959

## Oc1ncnc2[nH]ncc12 (library stock concentration (final ~1000-fold dilution): 10 mM)
RAW-Dual [1]; [4]
  IRF Lucia reporter activity: 1.11
RAW-Dual [1]; agonist: LPS (TLR4) 0.1 ug/mL
  IRF Lucia reporter activity: 0.82

## COc1ccccc1C(=O)Nc1cc2c(cc1N1CCCC1)n(C)c(=O)n2C (library stock concentration (final ~1000-fold dilution): 10 mM)
RAW-Dual [1]; [4]
  IRF Lucia reporter activity: 0.501
RAW-Dual [1]; agonist: LPS (TLR4) 0.1 ug/mL
  IRF Lucia reporter activity: 0.893

## CC(NC(=Nc1cccc2ncccc12)NC#N)c1ccccc1 (centres undefined) (library stock concentration (final ~1000-fold dilution): 10 mM)
RAW-Dual [1]; [4]
  IRF Lucia reporter activity: 0.7
RAW-Dual [1]; agonist: LPS (TLR4) 0.1 ug/mL
  IRF Lucia reporter activity: 0.936

## COCCOc1cc(F)c2c(Nc3ccc(NC(=O)Cn4cc(C(C)C)nn4)cc3)ncnc2c1 (library stock concentration (final ~1000-fold dilution): 10 mM)
RAW-Dual [1]; [4]
  IRF Lucia reporter activity: 1.06
RAW-Dual [1]; agonist: LPS (TLR4) 0.1 ug/mL
  IRF Lucia reporter activity: 0.818

## CCN1CCN(Cc2ccc(Nc3ncc(F)c(-c4cc(F)c5nc(C)n(C(C)C)c5c4)n3)nc2)CC1.CS(=O)(=O)O (library stock concentration (final ~1000-fold dilution): 10 mM)
RAW-Dual [1]; [4]
  IRF Lucia reporter activity: 0.0486
RAW-Dual [1]; agonist: LPS (TLR4) 0.1 ug/mL
  IRF Lucia reporter activity: 0.119

## CCN1CCN(Cc2ccc(Nc3ncc(F)c(-c4cc(F)c5nc(C)n(C(C)C)c5c4)n3)nc2)CC1.CS(=O)(=O)O
RAW-Dual [2]; [5]
  IRF Lucia reporter activity: 0.137

## CCc1ccc(OCc2ccccc2C(=O)Nc2ccc3nc(C)cc(N)c3c2)cc1.Cl
RAW-Dual [2]; [6]
  IRF Lucia reporter activity: 0.021

## CCc1ccc(OCc2ccccc2C(=O)Nc2ccc3nc(C)cc(N)c3c2)cc1.Cl (library stock concentration (final ~1000-fold dilution): 10 mM)
RAW-Dual [3]; [4]
  IRF Lucia reporter activity: 0.0191
RAW-Dual [3]; agonist: LPS (TLR4) 0.1 ug/mL
  IRF Lucia reporter activity: 0.0171

## Cc1cc(=O)oc2c(C=O)c(O)ccc12
RAW-Dual [2]; [5]
  IRF Lucia reporter activity: 0.744

## Cc1cc(=O)oc2c(C=O)c(O)ccc12 (library stock concentration (final ~1000-fold dilution): 10 mM)
RAW-Dual [1]; [4]
  IRF Lucia reporter activity: 0.787
RAW-Dual [1]; agonist: LPS (TLR4) 0.1 ug/mL
  IRF Lucia reporter activity: 0.266

## O=C(O)CSc1nnc(Br)n1-c1ccc(C2CC2)c2ccccc12 (library stock concentration (final ~1000-fold dilution): 10 mM)
RAW-Dual [1]; [4]
  IRF Lucia reporter activity: 1.05
RAW-Dual [1]; agonist: LPS (TLR4) 0.1 ug/mL
  IRF Lucia reporter activity: 1.28

## O=C(O)CSc1nnc(Br)n1-c1ccc(C2CC2)c2ccccc12
RAW-Dual [2]; [5]
  IRF Lucia reporter activity: 1

## O=C(NO)c1cnc(NC2(c3ccccc3)CC2)nc1 (library stock concentration (final ~1000-fold dilution): 10 mM)
RAW-Dual [3]; [4]
  IRF Lucia reporter activity: 0.0943
RAW-Dual [3]; agonist: LPS (TLR4) 0.1 ug/mL
  IRF Lucia reporter activity: 0.24

## COc1ccc(C(=C2C(=O)Nc3ccccc32)c2ccc(OC)cc2)cc1 (library stock concentration (final ~1000-fold dilution): 10 mM)
RAW-Dual [1]; [4]
  IRF Lucia reporter activity: 0.892
RAW-Dual [1]; agonist: LPS (TLR4) 0.1 ug/mL
  IRF Lucia reporter activity: 1.05

Reference: the supplement of paper PMC10037445
